{"source": "the RNAGym collection of RNA variant scans (doi:10.7554/elife.90254)", "parents": {"B1": {"name": "LINE1-mini (parent)", "chain": "GGCAGAGCUCAACACAGCGUGGCAAAGUGGCUGUGGCUAGACUGCC"}}, "note": "The source gives no read counts; variants with many changes may rest on few reads.", "data": [{"variants_of": "B1", "test": "self-cleavage, relative activity (ratio to wild type); higher = more cleavage; in vitro, sequencing; the parent is a self-cleaving ribozyme", "values": [{"variant": "G21A A26G G35A", "self-cleavage": 0.04}, {"variant": "U20C G21A A41C", "self-cleavage": 0.02}, {"variant": "U20A U34A G36A", "self-cleavage": 0.05}, {"variant": "U20G G22U G35U A39G", "self-cleavage": 0.03}, {"variant": "U20A A25U A41C", "self-cleavage": 0.04}, {"variant": "U20A G21C G33C U43G", "self-cleavage": 0.02}, {"variant": "U20C G40C C42U", "self-cleavage": 0.1}, {"variant": "U20G U32A U38A", "self-cleavage": 0.17}, {"variant": "U20A G21U A26C", "self-cleavage": 2.23}, {"variant": "U20G G33A C42U", "self-cleavage": 0.04}, {"variant": "U20C G35C G44U", "self-cleavage": 0.04}, {"variant": "G21A A26C U32A", "self-cleavage": 0.09}, {"variant": "U20A U32G U34G C37G", "self-cleavage": 0.02}, {"variant": "U20G G22U G27C G29U G44C", "self-cleavage": 0.12}, {"variant": "U20G G35A G40A G44A", "self-cleavage": 0.12}, {"variant": "U20A G27A C45U", "self-cleavage": 2.55}, {"variant": "U20C U32C C42U", "self-cleavage": 0.08}, {"variant": "U20G U28G C45U", "self-cleavage": 0.22}, {"variant": "U20C C23U U32A", "self-cleavage": 0.06}, {"variant": "G21A A39C C42G", "self-cleavage": 0.13}, {"variant": "U20C C23A C45U", "self-cleavage": 1.03}, {"variant": "U20A A26C G33U C37U", "self-cleavage": 0.05}, {"variant": "U20G G30C G33C G44A", "self-cleavage": 0.02}, {"variant": "U20C G33A C46A", "self-cleavage": 0.06}, {"variant": "U20A G21A C45G", "self-cleavage": 1.33}, {"variant": "U20G G27U G33U", "self-cleavage": 0.06}, {"variant": "U20A G21U A24C C31A G40U", "self-cleavage": 0.03}, {"variant": "G21A A24C G30A U32A G36C", "self-cleavage": 0.04}, {"variant": "U20A U32G G40A", "self-cleavage": 0.05}, {"variant": "U20G G21U C31A G36C", "self-cleavage": 0.06}, {"variant": "U20A G30U A39C", "self-cleavage": 0.28}, {"variant": "U20G G35U G40U U43A", "self-cleavage": 0}, {"variant": "U20G U34C C45U", "self-cleavage": 0.14}, {"variant": "U20G G21U G36U", "self-cleavage": 0.01}, {"variant": "U20A U38A C42G C46U", "self-cleavage": 0.02}, {"variant": "U20C G40U A41U", "self-cleavage": 0.3}, {"variant": "U20A G22A G33A C45G", "self-cleavage": 0.04}, {"variant": "U20A C31G A41U C42G", "self-cleavage": 0.03}, {"variant": "U20A G40A U43A", "self-cleavage": 0.05}, {"variant": "G21A C37A G44C", "self-cleavage": 0.06}, {"variant": "U20A G21U C23U A26G C42A", "self-cleavage": 0.28}, {"variant": "G21A C31G U32G G35C", "self-cleavage": 0.02}, {"variant": "U20A G21U G35A", "self-cleavage": 0.1}, {"variant": "U20C C37A C45U", "self-cleavage": 0.06}, {"variant": "U20C A25G G27A U28A U34G C45A", "self-cleavage": 0.13}, {"variant": "U20A A25G G44C", "self-cleavage": 0.28}, {"variant": "U20A G30A U38A G44C", "self-cleavage": 0.26}, {"variant": "G21A G22U U38G A41G", "self-cleavage": 0.03}, {"variant": "U20A G36C C37U C45A", "self-cleavage": 0.03}, {"variant": "U20A U28G C46U", "self-cleavage": 1.78}, {"variant": "U20G A39G A41C", "self-cleavage": 0}, {"variant": "U20G G22U U38C", "self-cleavage": 0.2}, {"variant": "U20A C37A U38A A41G C42G", "self-cleavage": 0.04}, {"variant": "U20G A25G G30U", "self-cleavage": 0.65}, {"variant": "U20G U28C G35U C46G", "self-cleavage": 0.26}, {"variant": "U20A G36C C42G", "self-cleavage": 0.02}, {"variant": "U20A U28A U32G", "self-cleavage": 0.13}, {"variant": "U20C A25U G33U", "self-cleavage": 0.4}, {"variant": "U20G G21A C31G G33C G36C A41U", "self-cleavage": 0.03}, {"variant": "U20A A25U U28G", "self-cleavage": 0.09}, {"variant": "U20G G21U G40C", "self-cleavage": 0.19}, {"variant": "U20G G33U A41U U43A", "self-cleavage": 0.02}, {"variant": "G21A G27U C42G", "self-cleavage": 0.07}, {"variant": "U20G G21A A39G C46A", "self-cleavage": 0.02}, {"variant": "U20G U32G G35U C45A", "self-cleavage": 0.2}, {"variant": "U20C G22A G35C", "self-cleavage": 0.06}, {"variant": "G21A G27U G30A G33C G44U", "self-cleavage": 0.02}, {"variant": "U20C G22A A24C A26U G30C G35A", "self-cleavage": 0.07}, {"variant": "U20G C37U U38A", "self-cleavage": 0.04}, {"variant": "U20A G40U C45U", "self-cleavage": 0.07}, {"variant": "G21A A26C G29A G33U C45A C46A", "self-cleavage": 0.06}, {"variant": "U20G C31U U38A", "self-cleavage": 0.11}, {"variant": "U20G C31U U38C", "self-cleavage": 0.03}, {"variant": "U20C C23U G30A C42A U43G", "self-cleavage": 0}, {"variant": "U20G U28C G35C G36A C37G", "self-cleavage": 0.01}, {"variant": "U20A G29U U34A", "self-cleavage": 0.11}, {"variant": "U20C C42U C45G", "self-cleavage": 0.04}, {"variant": "U20C G22A G44U C45A", "self-cleavage": 0.03}, {"variant": "U20C C31U G35A", "self-cleavage": 0.03}, {"variant": "U20G G27A C37G G40U U43C", "self-cleavage": 0.02}, {"variant": "U20C G27A U43G", "self-cleavage": 0}, {"variant": "U20C G33U A39C", "self-cleavage": 0.09}, {"variant": "G19U U32G G40A C45A", "self-cleavage": 0.02}, {"variant": "U20G C23G G27C G33C", "self-cleavage": 0.16}, {"variant": "U20G G22C C37G", "self-cleavage": 0.02}, {"variant": "U20G G27A C42U", "self-cleavage": 0.11}, {"variant": "U20A G21C A25C G27C C42A U43G", "self-cleavage": 0}, {"variant": "U20A U32C U34G", "self-cleavage": 0.02}, {"variant": "U20G A24G G40A C45A", "self-cleavage": 0}, {"variant": "U20A C31G A39C", "self-cleavage": 0.03}, {"variant": "U20A A26U G30C", "self-cleavage": 0.31}, {"variant": "U20C A24U U43G G44A", "self-cleavage": 0.02}, {"variant": "U20A G36U C37U A39C", "self-cleavage": 0.02}, {"variant": "U20C A25U U28A", "self-cleavage": 0.37}, {"variant": "U20C G22A U43C", "self-cleavage": 0.02}, {"variant": "U20A U32A U38G G44U", "self-cleavage": 0.02}, {"variant": "U20C A39G C42A", "self-cleavage": 0.02}, {"variant": "U20A U32G C46U", "self-cleavage": 0.04}, {"variant": "G21A A26U G27A U32G G33C", "self-cleavage": 0.05}, {"variant": "U20G U28C U32G C45A", "self-cleavage": 0.03}, {"variant": "G21A C37A A39U", "self-cleavage": 0.16}, {"variant": "U20G G29C G35U C42U C45U", "self-cleavage": 0}, {"variant": "G21A C42A C45U", "self-cleavage": 0.07}, {"variant": "G21A C42A C45G", "self-cleavage": 0.01}, {"variant": "U20C G36A C37G", "self-cleavage": 0.04}, {"variant": "U20C G29C U34A", "self-cleavage": 0.14}, {"variant": "U20A A25U G30U U32C", "self-cleavage": 0.05}, {"variant": "U20G G21A G33A", "self-cleavage": 0.01}, {"variant": "U20C A26C A41C", "self-cleavage": 0.09}, {"variant": "G21A A41C U43A", "self-cleavage": 0.08}, {"variant": "U20G A25C C46U", "self-cleavage": 0}, {"variant": "U20A A26U U28G", "self-cleavage": 0.09}, {"variant": "U20C U28G A41G", "self-cleavage": 0.87}, {"variant": "U20A A26G G33U U34C C37A", "self-cleavage": 0.02}, {"variant": "U20A C23U A26C G29U C45G", "self-cleavage": 0}, {"variant": "U20A C23A G44A", "self-cleavage": 0.34}, {"variant": "U20A G22A U28G", "self-cleavage": 0.51}, {"variant": "U20A G30U C42A", "self-cleavage": 0.78}, {"variant": "U20C U28G A39G G40C A41C", "self-cleavage": 0.06}, {"variant": "U20C G30U C37U C46A", "self-cleavage": 0.02}, {"variant": "U20A G29U U38A C45U", "self-cleavage": 0.06}, {"variant": "U20A G22C G29C", "self-cleavage": 0.24}, {"variant": "U20A G22C G29U", "self-cleavage": 0.4}, {"variant": "U20C G22C U32C G35U", "self-cleavage": 0.61}, {"variant": "G21A A26U G40U", "self-cleavage": 0.04}, {"variant": "U20G G22A A24G G35C C37U", "self-cleavage": 0.05}, {"variant": "G21A G22A U38A", "self-cleavage": 0.11}, {"variant": "U20A G22U G30A", "self-cleavage": 1.98}, {"variant": "U20G C37G G40C C42A", "self-cleavage": 0.07}, {"variant": "U20C G22U G35U", "self-cleavage": 0.02}, {"variant": "G19U U34A G40A", "self-cleavage": 0.03}, {"variant": "U20G U34G G36U U38C", "self-cleavage": 0.06}, {"variant": "G21A C23U A39U", "self-cleavage": 0.14}, {"variant": "U20C G40A C46A", "self-cleavage": 0.33}, {"variant": "U20A G30A C42U C46U", "self-cleavage": 0.07}, {"variant": "G21A G27A C31G G36C", "self-cleavage": 0.03}, {"variant": "U20G C31G G40A", "self-cleavage": 0.03}, {"variant": "U20A A24G A39G", "self-cleavage": 0.02}, {"variant": "G21A A39U G44U", "self-cleavage": 0.61}, {"variant": "U20G G22U C31U", "self-cleavage": 0.13}, {"variant": "U20G G29C G33C", "self-cleavage": 0.11}, {"variant": "U20A G22U G27C G29C", "self-cleavage": 0.14}, {"variant": "U20G A25U C31A C46A", "self-cleavage": 0.04}, {"variant": "U20A A25C G27U", "self-cleavage": 0.53}, {"variant": "U20G G22U A24U", "self-cleavage": 0.82}, {"variant": "U20G A24U U34A", "self-cleavage": 0.05}, {"variant": "U20C G21U C45U C46G", "self-cleavage": 0.55}, {"variant": "G21A A24C U43G", "self-cleavage": 0}, {"variant": "U20A G27C A41C", "self-cleavage": 0.04}, {"variant": "G21A G27U U32A G36A", "self-cleavage": 0.05}, {"variant": "G21A C23A C31U", "self-cleavage": 0.19}, {"variant": "U20A G27A C31G", "self-cleavage": 0.2}, {"variant": "U20C G30C C31A", "self-cleavage": 0.81}, {"variant": "U20G G35A U38G U43G", "self-cleavage": 0.01}, {"variant": "U20A C37U C42U G44C", "self-cleavage": 0.05}, {"variant": "U20C C31A U32G", "self-cleavage": 0.02}, {"variant": "U20G A41G G44A", "self-cleavage": 0}, {"variant": "U20G A25G C31A G36C", "self-cleavage": 0.08}, {"variant": "U20C U32G G35U G40U", "self-cleavage": 0.03}, {"variant": "U20G U38A C42U", "self-cleavage": 0.31}, {"variant": "U20C A24G U28A U32G", "self-cleavage": 0.2}, {"variant": "U20G G27A A41C", "self-cleavage": 0.04}, {"variant": "U20C U28G C42U", "self-cleavage": 0.05}, {"variant": "U20A A24C A25U G40U", "self-cleavage": 0.04}, {"variant": "U20A C23A A26G G27U", "self-cleavage": 0.61}, {"variant": "U20G U28A U34C", "self-cleavage": 0.16}, {"variant": "U20C A25C G33C", "self-cleavage": 0.04}]}]}
